Legend:
nitrate = assay: Nitrate concentration in cecal mucus extract of MCAO mice, colorimetric kit; details: sampled 24 hours after stroke
Nos2 gene = assay: Expression level of Nos2 gene in intestinal (colon) tissues of MCAO mice, real-time PCR; type: in vivo; details: sampled 24 hours after stroke
Procedure: At different time points (3 hours, 6 hours, 12 hours, 24 hours, 3 days, and 7 days, where the start time of timing is the time at which the occlusion suture was removed) after the cerebral stroke, the colon tissues of mice were rapidly collected and cryopreserved at −80° C. for determining the relative expression level of Nos2 gene. The specific steps were as follows. […] The respective Gapdh expression levels were taken as internal references.

IL-6, TNF-α = assay: Levels of inflammatory factors in mouse serum, ELISA; type: in vivo, mice; details: AG intervention after modeling; FIGS. 11A-11E
Procedure: (§1) After assessment of mNSS, blood collecting was performed on the mice. Blood collection methods comprised orbital blood collection and postcaval vein blood collection. Before testing, the mouse serum samples were stored at −80° C.

[1] = system: mouse middle cerebral artery occlusion (MCAO) model; assay: Nissl staining of frozen sections of brain tissues, neuronal loss; type: in vivo, mice; details: Post-AG group; brains harvested 24 hours after stroke; FIGS. 10A-10B
Procedure: (1) Brain harvesting: the mice in each group (SHAM group, MCAO group, and Post-AG group) were sacrificed to harvest their brains after evaluating mNSS 24 hours after stroke.
(2) Immobilization: after the mice were anesthetized, the thoracic cavity was opened to fully expose the heart, the right atrial appendage was cut open, and the heart was perfused with frozen normal saline for 10 min, and then with frozen 4% paraformaldehyde (PFA) for 10 min. Tissues were then immobilized in PFA for 24 h, and in 30% PFA sucrose for 48 h. After sufficient dehydration, the brain tissues completely sunk to the bottom, and were taken out.
(3) Embedding: the brain tissues were excised and placed in a frozen section embedding mold, embedded in conventional OCT, frozen in liquid nitrogen, and stored in a refrigerator at −80° C.
(4) Sectioning: the temperature of a freezing microtome was adjusted to −20° C. After reaching the temperature, the specimens were taken out, and the brain tissues was taken from 2.0 mm to 4.0 mm behind the bregma (comprising the entire thalamus tissue), and successively cut into coronal sections with a thickness of 5 μm. The sections were flattened with a fine brush, placed on a glass slide, and stored in a refrigerator at −20° C.
(5) Nissl staining: the brain sections were immersed in the Nissl staining solution for 5 min and washed twice with distilled water. […]

[2] = system: Tnf, Il17, Ifng, Il1b, Cxcl2, Kc, Il6; assay: Expression level of proinflammatory cytokines in intestinal (colon) tissues of MCAO mice; type: in vivo; details: AG intervention before or after modeling, colon tissues 24 hours after stroke, FIGS. 7A-7J
Procedure: (§2) At different time points (3 hours, 6 hours, 12 hours, 24 hours, 3 days, and 7 days, where the start time of timing is the time at which the occlusion suture was removed) after the cerebral stroke, the colon tissues of mice were rapidly collected and cryopreserved at −80° C. for determining the relative expression level of Nos2 gene. The specific steps were as follows.
(§3) (4) 2 μl of cDNA added in 20 μl volume was taken as a template (at a concentration of 50-100 ng/μl), and upstream and downstream primers as set forth in SEQ ID NOs: 1-2 and 23-28 were added at a final concentration of 250 nM to carry out SYBR Green (Takara Bio) real-time PCR, with a reaction system shown in Table 1:
(§4) (5) data were extracted with the ViiA 7 real-time PCR system (Applied Biosystems), and data analysis was performed by using the comparative Ct method. The respective Gapdh expression levels were taken as internal references.
(§5) The expression levels of Tjp1, Ocln, Cldn2, Tnf Il17, Ifng, Il1b, Cxcl2, Kc, and Il6 were detected according to the method of Example 4. Tjp1, Ocln, and Cldn2 were intestinal barrier-related genes; Tjp1 was a tight junction protein 1; Ocln was Occludin; Cldn2 was Claudin-2; Tnf was a tumor necrosis factor; Il17 was interleukin 17; Ifng interferon γ; Il1b was Interleukin 1β; Il6 was interleukin 6; and Kc and Cxcl2 were chemokines. Samples were taken 24 hours after cerebral stroke. The primer sequences for Tjp1, Ocln, Cldn2, Tnf Il17, Ifng, Il1b, Cxcl2, Kc, and Il6 were as set forth in SEQ ID NOs: 3-22.

Tjp1, Ocln, Cldn2 = assay: Expression level of intestinal barrier-related genes in intestinal tissues of MCAO mice; type: in vivo; details: AG intervention before or after modeling, samples 24 hours after stroke, FIGS. 7A-7J
Procedure: as §2, §3, §4, §5

Nox1 and Duox2 genes = assay: Expression levels of Nox1 and Duox2 genes in intestinal tissues of MCAO mice, real-time PCR; type: in vivo; details: AG 100 mg/kg gavage once 1 hour after cerebral stroke, sampled 24 hours after stroke
[3] = system: mouse middle cerebral artery occlusion (MCAO) model; assay: Mouse modified neurological severity score (mNSS); type: in vivo, mice; details: AG interventions before and after modeling; 24 hours after cerebral stroke; FIG. 9
Procedure: This operation was performed on the MCAO group, Post-AG group and Pre-AG group 24 hours after cerebral stroke. Neurobehavioral testing was performed by two testers blinded to the experimental grouping. The mNSS ranges from 0 to 14, with 0 representing normal and 14 representing the highest neurological severity. The scoring system can comprehensively assess neurological functions, comprising motor, sensory, balance and reflex tests. (1) Motor test: the tail of the mouse was lifted to assess the degree of bending and twisting of the limbs (0-3 points); the walking posture on a flat surface was assessed (0-3 points). (2)Balance test: the mouse was placed on a beam. Neurological impairment was mainly assessed based on whether the mouse could keep balance on the beam, dangle their limbs from the beam, and move smoothly through the beam (0-6 points). (3) Sensory and reflex test: auricle reflex and corneal reflex were tested respectively (0-2 points).

D-Lac, LBP, LPS = assay: Levels of intestinal barrier markers in mouse serum, ELISA; type: in vivo, mice; details: AG interventions before or after modeling; FIGS. 11A-11E
Procedure: as §1

[4] = 0.01-1000 mg/kg gavage once 1 hour after stroke, compared to MCAO group

Cc1ccnc(N)c1 [2-amino-4-methylpyridine (AMP), 2-amino-4-methylpyridine]
nitrate concentration in the cecal mucus extract (nitrate; [4]): reduces | expression level of Nos2 gene in the intestinal tissues (Nos2 gene; [4]): reduces

N=C(N)NN [aminoguanidine (AG), aminoguanidine]
level of IL-6 in the mouse serum (IL-6, TNF-α): significantly reduce | level of TNF-α in the mouse serum (IL-6, TNF-α): significantly reduce | neuronal loss in the hippocampus regions (Nissl staining) [1]: significantly reduce | expression level of Cxcl2 [2]: significantly decrease | expression level of Ifng [2]: significantly decrease | expression level of Il1b [2]: significantly decrease | expression level of Il6 [2]: significantly decrease | expression level of Il17 [2]: significantly decrease | expression level of Kc [2]: significantly decrease | expression level of Tnf [2]: significantly decrease | nitrate concentration in the cecal mucus extract (nitrate; AG 100 mg/kg gavage once 1 hour after cerebral stroke, FIG. 6): significantly reduces | expression level of Cldn2 gene (Tjp1, Ocln, Cldn2): significantly decreases | expression level of Ocln gene (Tjp1, Ocln, Cldn2): significantly increase | expression level of Tjp1 gene (Tjp1, Ocln, Cldn2): significantly increase | expression level of Nox1 gene in the intestinal tissues (Nox1 and Duox2 genes; FIG. 5B): significantly reduces | expression level of Duox2 gene in the intestinal tissues (Nox1 and Duox2 genes; FIG. 5C): significantly reduces | neurological deficit (mNSS) [3]: significantly improved | level of D-Lac in the mouse serum (D-Lac, LBP, LPS): significantly reduce | level of LBP in the mouse serum (D-Lac, LBP, LPS): significantly reduce | level of LPS in the mouse serum (D-Lac, LBP, LPS): significantly reduce | expression level of Nos2 gene in the intestinal tissues (Nos2 gene; AG 100 mg/kg gavage once 1 hour after cerebral stroke, FIG. 5A): significantly reduces

[H]/N=C(/C)NCCCC[C@H](N)C(=O)O [L-NIL]
nitrate concentration in the cecal mucus extract (nitrate; [4]): reduces | expression level of Nos2 gene in the intestinal tissues (Nos2 gene; [4]): reduces

[H]/N=C(\C)NCc1cccc(CN)c1 [1400W]
nitrate concentration in the cecal mucus extract (nitrate; [4]): reduces | expression level of Nos2 gene in the intestinal tissues (Nos2 gene; [4]): reduces
